Source: the supplement of paper PMC12217912
Some of the results follow. The full chains were built here from the parent and the listed change. Values near 0.05 are background.

B1: TEV protease; numbered along this chain (parent)
chain: MGESLFKGPRDYNPISSSICHLTNESDGHTTSLYGIGFGPFIITNKHLFRRNNGTLVVQSLHGVFKVKDTTTLQQHLVDGRDMIIIRMPKDFPPFPQKLKFREPQREERICLVTTNFQTKSMSSMVSDTSCTFPSGDGIFWKHWIQTKDGQCGSPLVSTRDGFIVGIHSASNFTNTNNYFTSVPKNFMELLTNQEAQQWVSGWRLNADSVLWGGHKVFMVKPEEPFQPVKEATQL

Variants of: B1
Experiment: raw area under fraction-flipped curve 0-4 h after induction (AUC4h, not background-subtracted), DNA-recorder readout of cleavage of the substrate (dimensionless); higher = more cleavage of the substrate by the protease variant
Conditions: temperature: 34 °C; time window: 0-4 h after rhamnose induction
Procedure: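 In vivo DNA recorder in E. coli TOP10(DE3) ΔrhaA at 34 °C. Each TEVp single-site mutant (parent TEVp 0) is paired with a single-site variant of the 7-mer TEVs (canonical ENLYFQ|S). The substrate sits between flexible linkers in a Bxb1-sfGFP-TEVs-SsrA fusion, so cleavage stabilises Bxb1 and speeds flipping of a recombination array, read by NGS. The value is the raw area under the fraction-flipped curve over 0-4 h after rhamnose induction (AUC4h), with ≥20 reads per time point. It is not background-subtracted; inactive controls average about 0.047.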
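Note: Bxb1 expression induced with 0.2% (w/v) L-rhamnose at OD600 near 0.5, cultures sampled hourly, flipped fraction per protease–substrate barcode pair counted by paired-end Illumina sequencing.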

| Variant | area with substrate ENLYFAS | area with substrate ENLYFCS | area with substrate ENLYFDS | area with substrate ENLYFES | area with substrate ENLYFFS | area with substrate ENLYFHS | area with substrate ENLYFIS | area with substrate ENLYFKS | area with substrate ENLYFLS | area with substrate ENLYFMS | area with substrate ENLYFNS | area with substrate ENLYFRS | area with substrate ENLYFTS | area with substrate ENLYFPS | area with substrate ENLYFSS | area with substrate ENLYFVS | area with substrate ENLYFWS | area with substrate ENLYFYS | area with substrate ENLYFGS |
| --- | --- | --- | --- | --- | --- | --- | --- | --- | --- | --- | --- | --- | --- | --- | --- | --- | --- | --- | --- |
| MGESLFKGPRDYNPISSSICHLTNESDGHTTSLYGIGFGPFIITNKHLFRRNNGTLVVQSLHGVFKVKDTTTLQQHLVDGRDMIIIRMPKDFPPFPQKLKFREPQREERICLVTTNFQTKMMSSMVSDTSCTFPSGDGIFWKHWIQTKDGQCGSPLVSTRDGFIVGIHSASNFTNTNNYFTSVPKNFMELLTNQEAQQWVSGWRLNADSVLWGGHKVFMVKPEEPFQPVKEATQL [S121M] | 0.0532 | 0.0527 | 0.0369 | 0.0684 | 0.0491 | 0.0654 | 0.0565 | 0.0526 | 0.0364 | 0.0667 | 0.0637 | 0.0587 | 0.0603 | – | – | – | – | – | – |
| MGESLFKGPRDYNPISSSICHLTNESDGHTTSLYGIGFGPFIITNKHLFRRNNGTLVVQSLHGVFKVKDTTTLQQHLVDGRDMIIIRMPKDFPPFPQKLKFREPQREERICLVTTNFQTKHMSSMVSDTSCTFPSGDGIFWKHWIQTKDGQCGSPLVSTRDGFIVGIHSASNFTNTNNYFTSVPKNFMELLTNQEAQQWVSGWRLNADSVLWGGHKVFMVKPEEPFQPVKEATQL [S121H] | 0.0552 | – | 0.0799 | 0.0602 | 0.0729 | 0.06 | 0.0611 | 0.0591 | – | 0.0727 | – | 0.0591 | 0.0658 | 0.0571 | 0.0566 | 0.0566 | 0.0566 | 0.0505 | – |
| MGESLFKGPRDYNPISSSICHLTNESDGHTTSLYGIGFGPFIITNKHLFRRNNGTLVVQSLHGVFKVKDTTTLQQHLVDGRDMIIIRMPKDFPPFPQKLKFREPQREERICLVTTNFQTKWMSSMVSDTSCTFPSGDGIFWKHWIQTKDGQCGSPLVSTRDGFIVGIHSASNFTNTNNYFTSVPKNFMELLTNQEAQQWVSGWRLNADSVLWGGHKVFMVKPEEPFQPVKEATQL [S121W] | 0.0797 | 0.0528 | – | 0.0458 | 0.0665 | – | 0.0481 | – | 0.0456 | 0.0684 | 0.0695 | 0.0588 | 0.0616 | – | 0.0572 | – | 0.0681 | 0.0586 | – |
| MGESLFKGPRDYNPISSSICHLTNESDGHTTSLYGIGFGPFIITNKHLFRRNNGTLVVQSLHGVFKVKDTTTLQQHLVDGRDMIIIRMPKDFPPFPQKLKFHEPQREERICLVTTNFQTKSMSSMVSDTSCTFPSGDGIFWKHWIQTKDGQCGSPLVSTRDGFIVGIHSASNFTNTNNYFTSVPKNFMELLTNQEAQQWVSGWRLNADSVLWGGHKVFMVKPEEPFQPVKEATQL [R102H] | 0.0445 | 0.0501 | – | 0.0547 | 0.0481 | – | 0.0472 | 0.0373 | 0.0652 | 0.0548 | 0.059 | 0.0551 | 0.052 | 0.0428 | 0.0337 | 0.044 | 0.0646 | 0.0429 | 0.0549 |
| MGESLFKGPRDYNPISSSICHLTNESDGHTTSLYGIGFGPFIITNKHLFRRNNGTLVVQSLHGVFKVKDTTTLQQHLVDGRDMIIIRMPKDFPPFPQKLKFREPQREERICLVYTNFQTKSMSSMVSDTSCTFPSGDGIFWKHWIQTKDGQCGSPLVSTRDGFIVGIHSASNFTNTNNYFTSVPKNFMELLTNQEAQQWVSGWRLNADSVLWGGHKVFMVKPEEPFQPVKEATQL [T114Y] | 0.0533 | 0.0644 | 0.0665 | 0.0781 | – | 0.0565 | – | 0.0622 | – | 0.0479 | – | 0.0531 | 0.0599 | 0.0609 | – | – | 0.0522 | – | – |
| MGESLFKGPRDYNPISSSICHLTNESDGHTTSLYGIGFGPFIITNKHLFRRNNGTLVVQSLHGVFKVKDTTTLQQHLVDGRDMIIIRMPKDFPPFPQKLKFREPQREERICLGTTNFQTKSMSSMVSDTSCTFPSGDGIFWKHWIQTKDGQCGSPLVSTRDGFIVGIHSASNFTNTNNYFTSVPKNFMELLTNQEAQQWVSGWRLNADSVLWGGHKVFMVKPEEPFQPVKEATQL [V113G] | 0.0861 | – | – | – | 0.058 | – | 0.0546 | 0.0613 | – | – | 0.0479 | – | – | 0.0547 | – | – | 0.0506 | 0.0493 | 0.0574 |
| MGESLFKGPRDYNPISSSICHLTNESDGHTTSLYGIGFGPFIITNKHLFRRNNGTLVVQSLHGVFKVKDTTTLQQHLVDGRDMIIIRMPKDFPPFPQKLKFREPQREERIMLVTTNFQTKSMSSMVSDTSCTFPSGDGIFWKHWIQTKDGQCGSPLVSTRDGFIVGIHSASNFTNTNNYFTSVPKNFMELLTNQEAQQWVSGWRLNADSVLWGGHKVFMVKPEEPFQPVKEATQL [C111M] | 0.0585 | 0.0531 | – | 0.0629 | 0.0676 | – | 0.0558 | 0.073 | 0.0449 | – | 0.0612 | – | – | 0.0525 | 0.0814 | – | 0.0533 | – | – |
| MGESLFKGPRDYNPISSSICHLTNESDGHTTSLYGIGFGPFIITNKHLFRRNNGTLVVQSLHGVFKVKDTTTLQQHLVDGRDMIIIRMPKDFPPFPQKLKFREPQREARICLVTTNFQTKSMSSMVSDTSCTFPSGDGIFWKHWIQTKDGQCGSPLVSTRDGFIVGIHSASNFTNTNNYFTSVPKNFMELLTNQEAQQWVSGWRLNADSVLWGGHKVFMVKPEEPFQPVKEATQL [E108A] | 0.0559 | 0.0468 | – | 0.0567 | 0.0624 | 0.0588 | 0.0545 | 0.0582 | 0.0556 | 0.0569 | – | 0.0466 | 0.0589 | 0.0534 | – | 0.0557 | 0.0535 | 0.0677 | – |
| MGESLFKGPRDYNPISSSICHLTNESDGHTTSLYGIGFGPFIITNKHLFRRNNGTLVVQSLHGVFKVKDTTTLQQHLVDGRDMIIIRMPKDFPPFPQKLKFREPQREERDCLVTTNFQTKSMSSMVSDTSCTFPSGDGIFWKHWIQTKDGQCGSPLVSTRDGFIVGIHSASNFTNTNNYFTSVPKNFMELLTNQEAQQWVSGWRLNADSVLWGGHKVFMVKPEEPFQPVKEATQL [I110D] | 0.041 | 0.0538 | 0.0392 | – | 0.0575 | 0.0125 | 0.0418 | 0.054 | 0.054 | 0.051 | 0.0535 | 0.063 | 0.0518 | 0.0504 | 0.0518 | 0.0549 | 0.0749 | 0.0423 | – |
| MGESLFKGPRDYNPISSSICHLTNESDGHTTSLYGIGFGPFIITNKHLFRRNNGTLVVQSLHGVFKVKDTTTLQQHLVDGRDMIIIRMPKDFPPFPQKLKFREPQRYERICLVTTNFQTKSMSSMVSDTSCTFPSGDGIFWKHWIQTKDGQCGSPLVSTRDGFIVGIHSASNFTNTNNYFTSVPKNFMELLTNQEAQQWVSGWRLNADSVLWGGHKVFMVKPEEPFQPVKEATQL [E107Y] | 0.0587 | 0.0541 | 0.0561 | 0.0639 | 0.0542 | 0.0671 | 0.0465 | – | – | 0.0644 | – | – | 0.0526 | – | 0.061 | 0.0546 | 0.0768 | – | 0.0435 |
